“And” between values parts separate entries of the source, which are not always exact repeats. Equal values may be shown once.
Molecular target: T1, canine IL17A-polyHis (canine, biotinylated (EZ-Link NHS-LC-biotin) in the biosensor assays)
T1 construct: also called biotinylated canine IL17A-polyHis; not shown: poly-His tag on the C-terminal
T1 chain: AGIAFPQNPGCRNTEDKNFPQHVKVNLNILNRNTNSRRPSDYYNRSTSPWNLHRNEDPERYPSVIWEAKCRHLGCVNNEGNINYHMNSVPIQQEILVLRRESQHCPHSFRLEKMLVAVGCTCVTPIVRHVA
Assay: BLI (Octet); biotinylated canine IL17A-polyHis on streptavidin sensors, several runs
Method: The binding affinity of canine IL17A-polyHis to canine IL17Ra ECD-huFc-polyHis was assessed using biolayer interferometry. Briefly, canine IL17A-polyHis was biotinylated and captured to streptavidin biosensors. The association of canine IL17Ra ECD-huFc-polyHis was monitored for 90 seconds. Dissociation was monitored for 600 seconds. A buffer only blank curve was subtracted to correct for any drift. The data were fit to a 1:1 binding model using ForteBio™ data analysis software to determine the kon, koff, and the Kd. The buffer for dilutions and all binding steps was: 20 mM phosphate, 150 mM NaCl, pH 7.2.

- Kd: 1.5 nM and 4.2 nM
B1: canine IL17Ra ECD-huFc-polyHis (Fc fusion)
chain: MGRLGEGLNCTVKNSTCLDDSWIHPRNLTPSSPKDVQVHLDFAQTQHGDLLPIIGIRWTLQTDASILFLEGAELSVLQLNTNERVCVKFEFLSKLKHHHKRWHFTFSHFVVEPGQEYEVTVHHLPKPIPDGDPNHQSKNFLVPGCEDPRMRMTTPCVSSGSLWDPNITAEALEAHQLQVHFTLWNESAQYQILLTSFPHTENRSCFHRVLMVPEPTLKEHHQRANIMLTGSSSNWCCRHQVQIQPFFSSCLNDCLRHSVTVPCPEIPDAPVSIADYIGSENLYFQ[not shown - human IgG1 Fc and a few adjoining residues]
notes: It also holds a linker, human Fc and His tag

From patent US20200199216A1 (KINDRED BIOSCIENCES, published 2020)
